Measured values: publication PMC12820563
Some of the results follow. The list includes weakly bound sequences.

The sequences below were run against T1, MBP-FoxP3dN (UniProt Q99JB6) (assay: PD-seq (MBP pull-down with sequencing)). Details: 20 mM Tris-HCl pH 7.5, 100 mM NaCl, 1.5 mM MgCl2, 0.4 uM protein, 0.1 uM dsDNA library, 30 min, room temperature, amylose pull-down; high values mean tight binding; double strand, one strand shown.
T1 sequence: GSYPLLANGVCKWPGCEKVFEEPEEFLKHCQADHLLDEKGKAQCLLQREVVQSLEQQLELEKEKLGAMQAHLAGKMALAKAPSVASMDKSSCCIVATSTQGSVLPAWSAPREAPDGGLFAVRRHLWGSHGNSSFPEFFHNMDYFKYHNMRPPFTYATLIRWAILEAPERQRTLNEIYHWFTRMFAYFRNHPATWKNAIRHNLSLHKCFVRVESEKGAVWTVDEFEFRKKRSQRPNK

Sequence | binding signal (RPM ratio (pull-down/input))
GATGATTGTTCTCCCAGCTGATGAATTCCCGTACTCGAGTAAACAAATTTTCCTAATCTTTCTGTTCAAGCGCCATCTAC | 0.344
GATGATTGTTCTCCCAGCTGATGAATTTCCCCAGTCGAGTAAACAAATTTTCCTAATCTTTCTGTTCAAGCGCCATCTAC | 0.146
GATGATTGTTCTCCCAGCTGATGAATTCGATAACTCGAGTAAACAAATTTTCCTAATCTTTCTGTTCAAGCGCCATCTAC | 0.403
GATGATTGTTCTCCCAGCTGATGAATTAACAACATCGAGTAAACAAATTTTCCTAATCTTTCTGTTCAAGCGCCATCTAC | 2.67
GATGATTGTTCTCCCAGCTGATGAATTGGCAAGTTCGAGTAAACAAATTTTCCTAATCTTTCTGTTCAAGCGCCATCTAC | 0.405
GATGATTGTTCTCCCAGCTGATGAATTTAAATTGTCGAGTAAACAAATTTTCCTAATCTTTCTGTTCAAGCGCCATCTAC | 0.654
GATGATTGTTCTCCCAGCTGATGAATTATAGGGCTCGAGTAAACAAATTTTCCTAATCTTTCTGTTCAAGCGCCATCTAC | 0.325
GATGATTGTTCTCCCAGCTGATGAATTACGGGTGTCGAGTAAACAAATTTTCCTAATCTTTCTGTTCAAGCGCCATCTAC | 0.873
GATGATTGTTCTCCCAGCTGATGAATTTCTCAAGTCGAGTAAACAAATTTTCCTAATCTTTCTGTTCAAGCGCCATCTAC | 0.167
GATGATTGTTCTCCCAGCTGATGAATTTGGTAAGTCGAGTAAACAAATTTTCCTAATCTTTCTGTTCAAGCGCCATCTAC | 0.454
GATGATTGTTCTCCCAGCTGATGAATTGTCCAGCTCGAGTAAACAAATTTTCCTAATCTTTCTGTTCAAGCGCCATCTAC | 0.249
GATGATTGTTCTCCCAGCTGATGAATTCTGTTAATCGAGTAAACAAATTTTCCTAATCTTTCTGTTCAAGCGCCATCTAC | 1.25
GATGATTGTTCTCCCAGCTGATGAATTTGTCGGCTCGAGTAAACAAATTTTCCTAATCTTTCTGTTCAAGCGCCATCTAC | 2.24
GATGATTGTTCTCCCAGCTGATGAATTTTCCCCTTCGAGTAAACAAATTTTCCTAATCTTTCTGTTCAAGCGCCATCTAC | 0.214
GATGATTGTTCTCCCAGCTGATGAATTCAGGTTTTCGAGTAAACAAATTTTCCTAATCTTTCTGTTCAAGCGCCATCTAC | 0.569
GATGATTGTTCTCCCAGCTGATGAATTAGACGTGTCGAGTAAACAAATTTTCCTAATCTTTCTGTTCAAGCGCCATCTAC | 0.628
GATGATTGTTCTCCCAGCTGATGAATTTGGTGCATCGAGTAAACAAATTTTCCTAATCTTTCTGTTCAAGCGCCATCTAC | 1.86
GATGATTGTTCTCCCAGCTGATGAATTTAGATTATCGAGTAAACAAATTTTCCTAATCTTTCTGTTCAAGCGCCATCTAC | 1.31
GATGATTGTTCTCCCAGCTGATGAATTCGCATCGTCGAGTAAACAAATTTTCCTAATCTTTCTGTTCAAGCGCCATCTAC | 2.77
GATGATTGTTCTCCCAGCTGATGAATTCGTGGTTTCGAGTAAACAAATTTTCCTAATCTTTCTGTTCAAGCGCCATCTAC | 1.35
GATGATTGTTCTCCCAGCTGATGAATTCGGAATCTCGAGTAAACAAATTTTCCTAATCTTTCTGTTCAAGCGCCATCTAC | 1.48

Sequence | binding signal (RPM ratio (pull-down/input))
GATGATTGTTCTCCCAGCTGATGAATTTAGCCCTTCGAGTAAACAAATTTTCCTAATCTTTCTGTTCAAGCGCCATCTAC | 1.19
GATGATTGTTCTCCCAGCTGATGAATTTCCTGATTCGAGTAAACAAATTTTCCTAATCTTTCTGTTCAAGCGCCATCTAC | 0.219
GATGATTGTTCTCCCAGCTGATGAATTTAGCCCATCGAGTAAACAAATTTTCCTAATCTTTCTGTTCAAGCGCCATCTAC | 1.28
GATGATTGTTCTCCCAGCTGATGAATTCTGTTCCTCGAGTAAACAAATTTTCCTAATCTTTCTGTTCAAGCGCCATCTAC | 0.939
GATGATTGTTCTCCCAGCTGATGAATTCATTCGGTCGAGTAAACAAATTTTCCTAATCTTTCTGTTCAAGCGCCATCTAC | 0.256
GATGATTGTTCTCCCAGCTGATGAATTGCCTTTTTCGAGTAAACAAATTTTCCTAATCTTTCTGTTCAAGCGCCATCTAC | 1.02
GATGATTGTTCTCCCAGCTGATGAATTTTCCTCCTCGAGTAAACAAATTTTCCTAATCTTTCTGTTCAAGCGCCATCTAC | 0.252
GATGATTGTTCTCCCAGCTGATGAATTTTAACCCTCGAGTAAACAAATTTTCCTAATCTTTCTGTTCAAGCGCCATCTAC | 0.268
GATGATTGTTCTCCCAGCTGATGAATTAGCTACCTCGAGTAAACAAATTTTCCTAATCTTTCTGTTCAAGCGCCATCTAC | 0.49
GATGATTGTTCTCCCAGCTGATGAATTAACAGTTTCGAGTAAACAAATTTTCCTAATCTTTCTGTTCAAGCGCCATCTAC | 0.424
GATGATTGTTCTCCCAGCTGATGAATTCTAGTAGTCGAGTAAACAAATTTTCCTAATCTTTCTGTTCAAGCGCCATCTAC | 0.431
GATGATTGTTCTCCCAGCTGATGAATTGTCCCGGTCGAGTAAACAAATTTTCCTAATCTTTCTGTTCAAGCGCCATCTAC | 0.234
GATGATTGTTCTCCCAGCTGATGAATTCGCATCTTCGAGTAAACAAATTTTCCTAATCTTTCTGTTCAAGCGCCATCTAC | 5.81
GATGATTGTTCTCCCAGCTGATGAATTATGCTCGTCGAGTAAACAAATTTTCCTAATCTTTCTGTTCAAGCGCCATCTAC | 0.988
GATGATTGTTCTCCCAGCTGATGAATTCACGGTGTCGAGTAAACAAATTTTCCTAATCTTTCTGTTCAAGCGCCATCTAC | 0.496
GATGATTGTTCTCCCAGCTGATGAATTCGCGGATTCGAGTAAACAAATTTTCCTAATCTTTCTGTTCAAGCGCCATCTAC | 0.25
GATGATTGTTCTCCCAGCTGATGAATTGTCACCCTCGAGTAAACAAATTTTCCTAATCTTTCTGTTCAAGCGCCATCTAC | 0.486
GATGATTGTTCTCCCAGCTGATGAATTCCTCTGCTCGAGTAAACAAATTTTCCTAATCTTTCTGTTCAAGCGCCATCTAC | 0.218
GATGATTGTTCTCCCAGCTGATGAATTTGATAATTCGAGTAAACAAATTTTCCTAATCTTTCTGTTCAAGCGCCATCTAC | 0.592
GATGATTGTTCTCCCAGCTGATGAATTCCCCAGATCGAGTAAACAAATTTTCCTAATCTTTCTGTTCAAGCGCCATCTAC | 0.147
GATGATTGTTCTCCCAGCTGATGAATTATACGACTCGAGTAAACAAATTTTCCTAATCTTTCTGTTCAAGCGCCATCTAC | 0.401

Sequence | binding signal (RPM ratio (pull-down/input))
GATGATTGTTCTCCCAGCTGATGAATTTTGGACTTCGAGTAAACAAATTTTCCTAATCTTTCTGTTCAAGCGCCATCTAC | 0.475
GATGATTGTTCTCCCAGCTGATGAATTAGGGAAATCGAGTAAACAAATTTTCCTAATCTTTCTGTTCAAGCGCCATCTAC | 0.355
GATGATTGTTCTCCCAGCTGATGAATTCCTGATGTCGAGTAAACAAATTTTCCTAATCTTTCTGTTCAAGCGCCATCTAC | 0.319
GATGATTGTTCTCCCAGCTGATGAATTTTACCTATCGAGTAAACAAATTTTCCTAATCTTTCTGTTCAAGCGCCATCTAC | 0.323
GATGATTGTTCTCCCAGCTGATGAATTCACACCCTCGAGTAAACAAATTTTCCTAATCTTTCTGTTCAAGCGCCATCTAC | 0.376
GATGATTGTTCTCCCAGCTGATGAATTCAACGAGTCGAGTAAACAAATTTTCCTAATCTTTCTGTTCAAGCGCCATCTAC | 0.205
GATGATTGTTCTCCCAGCTGATGAATTATGAAATTCGAGTAAACAAATTTTCCTAATCTTTCTGTTCAAGCGCCATCTAC | 0.632
GATGATTGTTCTCCCAGCTGATGAATTCACCGCATCGAGTAAACAAATTTTCCTAATCTTTCTGTTCAAGCGCCATCTAC | 0.824
GATGATTGTTCTCCCAGCTGATGAATTCTGTTTTTCGAGTAAACAAATTTTCCTAATCTTTCTGTTCAAGCGCCATCTAC | 5.51
GATGATTGTTCTCCCAGCTGATGAATTTGCTCTATCGAGTAAACAAATTTTCCTAATCTTTCTGTTCAAGCGCCATCTAC | 0.483
GATGATTGTTCTCCCAGCTGATGAATTTGGCGGGTCGAGTAAACAAATTTTCCTAATCTTTCTGTTCAAGCGCCATCTAC | 0.619
GATGATTGTTCTCCCAGCTGATGAATTCGTGTCATCGAGTAAACAAATTTTCCTAATCTTTCTGTTCAAGCGCCATCTAC | 1.06
GATGATTGTTCTCCCAGCTGATGAATTCGTCGTGTCGAGTAAACAAATTTTCCTAATCTTTCTGTTCAAGCGCCATCTAC | 1.63
GATGATTGTTCTCCCAGCTGATGAATTGACCCGATCGAGTAAACAAATTTTCCTAATCTTTCTGTTCAAGCGCCATCTAC | 0.22
GATGATTGTTCTCCCAGCTGATGAATTCCAAGCATCGAGTAAACAAATTTTCCTAATCTTTCTGTTCAAGCGCCATCTAC | 0.68
GATGATTGTTCTCCCAGCTGATGAATTTGAATTCTCGAGTAAACAAATTTTCCTAATCTTTCTGTTCAAGCGCCATCTAC | 0.784
GATGATTGTTCTCCCAGCTGATGAATTAATATCATCGAGTAAACAAATTTTCCTAATCTTTCTGTTCAAGCGCCATCTAC | 0.783
GATGATTGTTCTCCCAGCTGATGAATTCAACGCGTCGAGTAAACAAATTTTCCTAATCTTTCTGTTCAAGCGCCATCTAC | 0.509
GATGATTGTTCTCCCAGCTGATGAATTCGAGGGCTCGAGTAAACAAATTTTCCTAATCTTTCTGTTCAAGCGCCATCTAC | 0.273
GATGATTGTTCTCCCAGCTGATGAATTGCTATCCTCGAGTAAACAAATTTTCCTAATCTTTCTGTTCAAGCGCCATCTAC | 0.786
GATGATTGTTCTCCCAGCTGATGAATTACTATAGTCGAGTAAACAAATTTTCCTAATCTTTCTGTTCAAGCGCCATCTAC | 0.348
